Screen size: about 310,000 compounds; about 14,000 (4.5%) showed an effect of 50% or more. The effect is printed as a negative number. Some of the results follow.
Target: human ether-à-go-go-related gene (hERG) potassium channel (human, UniProt Q12809)
Experiment: primary screen, population patch clamp on CHO cells stably expressing hERG
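Note: peak tail current of the secondary pulse compared with the same well before compound.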

Sequence of human ether-à-go-go-related gene (hERG) potassium channel (Q12809 whole entry, looked up): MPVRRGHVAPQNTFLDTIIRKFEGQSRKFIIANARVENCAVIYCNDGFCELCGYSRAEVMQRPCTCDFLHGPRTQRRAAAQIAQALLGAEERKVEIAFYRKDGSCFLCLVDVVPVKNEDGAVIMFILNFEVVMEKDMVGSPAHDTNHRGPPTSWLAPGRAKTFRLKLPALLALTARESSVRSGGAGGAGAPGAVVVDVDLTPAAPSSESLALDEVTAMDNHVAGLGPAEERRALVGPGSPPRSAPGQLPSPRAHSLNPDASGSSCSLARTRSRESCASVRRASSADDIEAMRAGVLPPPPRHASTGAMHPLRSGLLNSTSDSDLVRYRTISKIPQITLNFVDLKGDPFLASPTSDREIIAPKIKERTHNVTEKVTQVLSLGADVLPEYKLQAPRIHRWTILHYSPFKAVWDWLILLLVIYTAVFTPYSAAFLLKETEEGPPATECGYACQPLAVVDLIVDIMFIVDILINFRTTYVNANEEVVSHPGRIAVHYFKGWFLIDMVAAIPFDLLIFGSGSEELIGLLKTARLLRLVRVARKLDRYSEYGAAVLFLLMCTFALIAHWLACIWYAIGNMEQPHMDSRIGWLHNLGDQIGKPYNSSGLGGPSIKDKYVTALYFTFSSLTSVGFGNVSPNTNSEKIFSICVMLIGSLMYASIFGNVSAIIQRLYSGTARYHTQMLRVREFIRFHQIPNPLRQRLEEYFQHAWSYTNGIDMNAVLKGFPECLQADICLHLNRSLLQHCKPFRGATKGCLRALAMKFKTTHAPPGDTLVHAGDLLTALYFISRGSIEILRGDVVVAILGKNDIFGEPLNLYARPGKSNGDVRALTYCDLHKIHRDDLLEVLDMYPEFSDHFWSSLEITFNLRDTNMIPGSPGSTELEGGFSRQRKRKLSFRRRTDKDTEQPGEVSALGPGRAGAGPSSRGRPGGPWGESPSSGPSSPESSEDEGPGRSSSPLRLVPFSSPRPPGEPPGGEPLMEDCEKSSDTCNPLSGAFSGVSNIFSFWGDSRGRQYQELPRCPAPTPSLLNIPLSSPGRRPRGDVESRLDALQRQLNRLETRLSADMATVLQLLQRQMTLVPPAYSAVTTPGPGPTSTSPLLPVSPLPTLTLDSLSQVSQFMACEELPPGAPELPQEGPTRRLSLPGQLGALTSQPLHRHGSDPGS

| Structure (SMILES) | hERG current change (%, negative = inhibition) at 10uM [%] |
| --- | --- |
| O=S(=O)(Nc1nc2ccccc2nc1Nc1ccc(N2CCOCC2)cc1)c1cc(Cl)ccc1Cl | -0.376 |
| COC(=O)Cn1cnc2sc3c(c2c1=O)CCCC3 | 8.7 |
| COc1ccc(CNC(=O)C(c2ccc(C)o2)N(Cc2cccs2)C(=O)Cc2cccs2)cc1 (stereo not drawn) | 4.17 |
| NC(=O)COC(=O)c1oc2ccccc2c1CSc1ccc(Cl)cc1 | -4.62 |
| Cc1ccc(NC(c2ccccc2)c2nc3ccccc3[nH]c2=O)cc1 (stereo not drawn) | -9.1 |
| COCCN(C(=O)COC(=O)CCC1CCCC1)c1c(N)n(Cc2ccccc2)c(=O)[nH]c1=O | -0.511 |
| COc1ccc(C(=O)C2CCCN(Cc3sc(N4CCCC4)nc3Cl)C2)c(OC)c1 (stereo not drawn) | -49.7 |
| N#CN=C(N)c1ccccc1 | 0.592 |
| CCOc1cccc(CN2CCCC(C(=O)c3cc(Cl)ccc3OC)C2)c1O (stereo not drawn) | -64.3 |
| COc1ccc(C(=O)NNC(=O)c2ccccc2[N+](=O)[O-])cc1 | 4.27 |
| Cc1ccc(S(=O)(=O)CCC(=O)Nc2nnc(-c3ccco3)o2)cc1 | 0.92 |
| CC(NC(=O)c1ccc(N(C)C)cc1)C(c1cccs1)N1CCN(C)CC1 (stereo not drawn) | -8.33 |
| Cc1ccc(CNC(=O)C2CCN(S(=O)(=O)c3ccc(Br)s3)CC2)cc1 | 3.77 |
| CCOC(=O)C1CCN(C(=O)C2CCC(=O)N(Cc3cccc(C(F)(F)F)c3)C2)CC1 (stereo not drawn) | -3.9 |
| CCN(C(=O)c1ccc(N2CC3CC(C2)c2cccc(=O)n2C3)c(NC(=O)c2ccncc2)c1)c1cccc(C)c1 (stereo not drawn) | 6.84 |
| Cc1cccc(C(=O)N2CCCC(N3CCN(Cc4ccc5c(c4)OCO5)CC3)C2)n1 (stereo not drawn) | 10.2 |
| CCOc1ccc(S(=O)(=O)N2CCOCC2)cc1NC(=O)CN1C(=O)NC(CC)(c2ccccc2)C1=O (stereo not drawn) | -73.5 |
| Cc1ccc(/C=N/NC(=O)c2cccnc2)o1 | 20.8 |
| COc1ccc(Cl)cc1NC(=O)CN1CCN(S(=O)(=O)N2CCCCC2)CC1 | -9.48 |

| Structure (SMILES) | hERG current change (%, negative = inhibition) at 10uM [%] |
| --- | --- |
| C/C(=C(\C#N)C(=O)NCc1ccccc1)N(C)C | 4.35 |
| CC(C)C(=O)N1CCN(c2ccc([N+](=O)[O-])cc2Cl)CC1 | -30.9 |
| Cc1cc(NC(=O)c2cc(-c3cccs3)nc3ccccc23)no1 | 0.926 |
| CCCn1c(SCC(=O)Nc2ccccc2CC)nnc1C(C)C | 3.75 |
| O=c1[nH]c(=S)[nH]c(O)c1N=Nc1ccc(SC(F)F)cc1 | -9.9 |
| N#Cc1nc(-c2ccccc2Cl)oc1NCc1ccco1 | -8.28 |
| O=C(Nc1ccc2c(c1)OCO2)C1CCN(c2ccc(S(=O)(=O)N3CCOCC3)cc2)CC1 | 7.9 |
| CC1(C)CC(=O)C2=C(C1)OC(N)=C(C#N)[C@@H]2c1ccccc1[N+](=O)[O-] | -17.2 |
| CC(=O)Nc1ccccc1NC(=O)c1ccccc1-c1ccccc1 | 10.1 |
| CCOc1ccccc1NC(=O)N1CCCC1C(=O)NCc1cccs1 (stereo not drawn) | 10.2 |
| CN(C)S(=O)(=O)N1CCC(Cc2ccccc2)CC1 | -9.65 |
| CC1=CC(C)(C)N(S(=O)(=O)c2ccc(C)cc2)c2cc(C)ccc21 | -4.88 |
| CC(=O)Nc1nnc(C2=COCCO2)o1 | 16.4 |
| CN1CCN(C(=O)c2ccc(CN3CCOCC3)cc2)CC1 | 10.5 |
| COc1ccc(NC(=O)CCC(=O)N2CCCC2)c([N+](=O)[O-])c1 | 9.86 |
| Cc1nn(Cc2ccccc2)c(C)c1C(=O)OCC(=O)Nc1cc(S(C)(=O)=O)ccc1Cl | -1.75 |
| Cc1cccc(/C(N)=N/OC(=O)COc2ccccc2Cl)c1 | 4.39 |
| CCOC(=O)c1cnc(SSc2ncc(C(=O)OCC)c(N)n2)nc1N | 1.18 |
| COC(=O)/C=C1\SC(=Nc2ccc(OC)cc2)NC1=O | 6.99 |

| Structure (SMILES) | hERG current change (%, negative = inhibition) at 10uM [%] |
| --- | --- |
| Cc1ccc(C)c(NC(=O)C(Sc2nc3ccc(C)cc3[nH]2)c2ccccc2)c1 (stereo not drawn) | -2.75 |
| Cc1c(NC(=O)OCCNC(=O)COc2c(Cl)cccc2Cl)sc(=S)n1C | -6.16 |
| Cc1ccc(N(CCC#N)C(=O)CN2C(=O)NC(Cc3ccccc3)C2=O)cc1 (stereo not drawn) | -11.1 |
| O=C(O)c1cc([N+](=O)[O-])ccc1N1CCCCC1 | -1.28 |
| Cc1ccc(-c2n[nH]c(=S)n2C)cc1Cl | 14.1 |
| O=C(CNCc1ccc(F)cc1)Nc1ccccc1[N+](=O)[O-] | -23.4 |
| COC(=O)c1ccc2[nH]cc(CCO)c2c1 | 17.1 |
| O=C(COC(=O)Cn1[nH]c(=O)c2ccccc2c1=O)NNC(=O)c1ccc(Br)cc1 | 5.77 |
| Cc1nc(-c2nc(CC(=O)NNC(=O)c3ccc(Cl)cc3)cs2)cs1 | -2.6 |
| COc1ccc2[nH]c3c(=O)n(Cc4ccncc4)cnc3c2c1 | -11 |
| CC1=C(C(=O)OCc2ccccc2)C(c2ccc3ccccc3c2)NC(=O)N1CCCC(=O)O (stereo not drawn) | -12 |
| COc1cc(OC)cc(C(=O)NCc2cccnc2)c1 | 5.4 |
| C=CCn1c(=S)sc2c(=O)[nH]c(C)nc21 | 8.05 |
| CSc1snc(SCC(N)=O)c1C#N | 20.6 |
| COc1ccc(-c2nnco2)cc1OC | -6.94 |
| COc1ccc(NC(=S)N(CCN(C)C)C(C)c2ccncc2)cc1Cl (stereo not drawn) | -59.9 |
| N#Cc1ccc(-c2cccnc2)nc1SCC(=O)Nc1sc2c(c1C#N)CCC2 | -3.44 |
| CN1CCN(CCC(=O)Nc2ccccc2Cl)CC1 | -1.75 |
| CCCCn1c(SCC(=O)N2CCc3ccccc32)nnc1-c1ccncc1 | -49.8 |
